Where a chain is given by its changes, count along the chain named. Names may count otherwise. No constants are given. Whether binding was seen depends on the method and setting. For part of these data: In cells and extracts the contact can be indirect. Some binding calls cover weakened binding; strength is not graded here. For part of these data: Where a sequence is shown, tags or fusion partners need not be part of it. One block for each molecule: values may come before it.
Columns and labels:
[1] = biological target: SmBIT-RXRα-FLAG, split luciferase fusion (human) (UniProt P19793); test: split reporter; NanoBiT split luciferase in live HEK293T; N-terminal LgBIT and SmBIT fusions, 50 ng each; Nano-Glo Live Cell Assay; cells treated with HX531 (up to 4 uM) in Figure 2B and Supplementary Figure S2E
[2] = biological target: RXRα-FLAG (retinoid X receptor α) (human) (UniProt P19793); test: co-IP; nuclear extracts of HEK293T co-transfected with FXRα2-MycTwinstrep (wt, L434R or L415R) and RXRα-FLAG; NaCl set to 0.1 M; 1 ug rabbit anti-RXRα (sc-553) overnight at 4°C, G-Sepharose beads; western blot
[3] = biological target: RXRα, in vitro translated (human) (UniProt P19793); test: condition: only in the complex on the ER-2 DNA probe; native gel or EMSA; supershift with antibodies against FXR or RXRα on the 32P-labelled ER-2 DNA probe; in vitro translated FXRα2 and RXRα; 20 mM HEPES pH 7.4, 10% glycerol, 50 mM KCl, 1 mM DTT; 4% polyacrylamide gel
[4] = biological target: RXRα, in vitro translated (human) (UniProt P19793); test: native gel or EMSA; supershift with antibodies against FXR or RXRα on the 32P-labelled IR-1 DNA probe; in vitro translated FXRα2 and RXRα; 20 mM HEPES pH 7.4, 10% glycerol, 50 mM KCl, 1 mM DTT; 4% polyacrylamide gel

The chains behind the UniProt entries cited, without tags or fusion partners. Where a name states a change or a piece, a line headed by the entry shows the natural chain unless it says otherwise.
UniProt P19793: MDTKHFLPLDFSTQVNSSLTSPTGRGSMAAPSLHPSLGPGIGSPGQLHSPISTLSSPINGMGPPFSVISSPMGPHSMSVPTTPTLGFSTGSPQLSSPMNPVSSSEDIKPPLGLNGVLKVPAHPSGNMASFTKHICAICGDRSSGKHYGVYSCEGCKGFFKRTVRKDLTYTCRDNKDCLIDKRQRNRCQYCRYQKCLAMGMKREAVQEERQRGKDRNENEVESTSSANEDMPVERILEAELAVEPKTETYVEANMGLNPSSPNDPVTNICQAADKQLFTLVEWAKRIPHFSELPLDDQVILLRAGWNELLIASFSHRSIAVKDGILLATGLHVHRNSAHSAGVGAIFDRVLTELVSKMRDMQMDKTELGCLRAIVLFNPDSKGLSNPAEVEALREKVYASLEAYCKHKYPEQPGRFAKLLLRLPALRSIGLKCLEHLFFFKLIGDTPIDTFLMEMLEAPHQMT

- binding [1]: binds
Molecule: SmBIT-RXRα-FLAG, split luciferase fusion (from UniProt P19793-1 1-462)

- binding [2]: binds
B1: FXRα2-MycTwinstrep (farnesoid X receptor isoform α2, wild type) (protein, UniProt Q96RI1-2 1-472)
chain: MGSKMNLIEHSHLPTTDEFSFSENLFGVLTEQVAGPLGQNLEVEPYSQYSNVQFPQVQPQISSSSYYSNLGFYPQQPEEWYSPGIYELRRMPAETLYQGETEVAEMPVTKKPRMGASAGRIKGDELCVVCGDRASGYHYNALTCEGCKGFFRRSITKNAVYKCKNGGNCVMDMYMRRKCQECRLRKCKEMGMLAECLLTEIQCKSKRLRKNVKQHADQTVNEDSEGRDLRQVTSTTKSCREKTELTPDQQTLLHFIMDSYNKQRMPQEITNKILKEEFSAEENFLILTEMATNHVQVLVEFTKKLPGFQTLDHEDQIALLKGSAVEAMFLRSAEIFNKKLPSGHSDLLEERIRNSGISDEYITPMFSFYKSIGELKMTQEEYALLTAIVILSPDRQYIKDREAVEKLQEPLLDVLQKLCKIHQPENPQHFACLLGRLTELRTFNHHHAEMLMSWRVNDHKFTPLLCEIWDVQ

- binding [2]: no binding
B2: FXRα2^L415R-MycTwinstrep (protein, UniProt Q96RI1-2 1-472)
chain: B1 chain with L415R

- binding [2]: no binding
B3: FXRα2^L434R-MycTwinstrep (protein, UniProt Q96RI1-2 1-472)
chain: B1 chain with L434R

- binding [3]: no binding
- binding [4]: binds
B4: FXRα2, in vitro translated (protein, UniProt Q96RI1-2 1-472)
chain: B1 chain
